# Assay results from paper PMC4336329 (PLoS ONE, 2015).
# Out of some 310,000 compounds screened, about 2,200 (0.71%) showed an effect of 50% or more. The effect is printed as a negative number. This is one part of the list.
# Biological target: human ether-à-go-go-related gene (hERG) potassium channel (human, UniProt Q12809)
# Assay: primary screen, population patch clamp on CHO cells stably expressing hERG
# Sequence of human ether-à-go-go-related gene (hERG) potassium channel (Q12809 whole entry, looked up): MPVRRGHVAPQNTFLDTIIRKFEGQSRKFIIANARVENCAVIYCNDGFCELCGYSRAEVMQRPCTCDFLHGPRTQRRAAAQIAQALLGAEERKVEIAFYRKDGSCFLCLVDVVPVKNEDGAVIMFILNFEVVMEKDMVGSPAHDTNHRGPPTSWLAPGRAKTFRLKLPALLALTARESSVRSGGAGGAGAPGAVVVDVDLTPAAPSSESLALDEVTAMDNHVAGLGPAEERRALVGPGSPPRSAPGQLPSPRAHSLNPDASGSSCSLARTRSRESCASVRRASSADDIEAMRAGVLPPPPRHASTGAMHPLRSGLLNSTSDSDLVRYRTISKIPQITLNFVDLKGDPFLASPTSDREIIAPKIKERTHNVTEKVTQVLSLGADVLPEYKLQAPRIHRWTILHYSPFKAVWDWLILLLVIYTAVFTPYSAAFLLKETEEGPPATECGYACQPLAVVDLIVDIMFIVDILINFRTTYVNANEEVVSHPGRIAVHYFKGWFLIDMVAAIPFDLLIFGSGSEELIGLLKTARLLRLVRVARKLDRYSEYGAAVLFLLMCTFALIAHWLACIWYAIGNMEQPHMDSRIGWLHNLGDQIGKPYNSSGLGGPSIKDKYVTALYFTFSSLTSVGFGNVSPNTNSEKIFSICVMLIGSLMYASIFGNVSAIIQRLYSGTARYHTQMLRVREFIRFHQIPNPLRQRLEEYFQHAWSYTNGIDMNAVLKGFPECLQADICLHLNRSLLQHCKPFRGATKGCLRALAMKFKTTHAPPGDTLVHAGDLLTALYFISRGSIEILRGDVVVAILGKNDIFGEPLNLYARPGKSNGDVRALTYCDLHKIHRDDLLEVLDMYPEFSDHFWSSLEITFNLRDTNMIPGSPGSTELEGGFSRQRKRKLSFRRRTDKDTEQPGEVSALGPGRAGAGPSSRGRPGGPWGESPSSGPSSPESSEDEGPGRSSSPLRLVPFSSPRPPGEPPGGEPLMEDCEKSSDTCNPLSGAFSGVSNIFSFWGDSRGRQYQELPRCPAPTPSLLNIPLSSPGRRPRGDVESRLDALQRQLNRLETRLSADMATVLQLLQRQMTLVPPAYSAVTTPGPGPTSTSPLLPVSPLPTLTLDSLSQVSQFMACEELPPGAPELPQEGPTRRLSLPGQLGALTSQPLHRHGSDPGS
row,Compound,"hERG current change (%, negative = inhibition) at 1uM [%]"
1,COc1ccc(Cl)cc1N1C(=NC(=O)C2CCCCC2)SC2CS(=O)(=O)CC21 (stereo not shown),5.28
2,CCn1nc(C(=O)Nc2cccc3ccccc23)c(Cl)c1Cl,17.7
3,CC(Oc1ccc2oc3ccccc3c2c1)C(=O)NC12CC3CC(CC(C3)C1)C2 (stereo not shown),20.4
4,COc1cnc(-c2ccccn2)nc1Sc1cccc(Cl)c1,16.3
5,O=C(/C(=C/O)N=Nc1ccccc1)c1ccncc1,9.05
6,CCCCn1c(N)c(N(CCC(C)C)C(=O)c2ccc(C)c(S(=O)(=O)N3CCOCC3)c2)c(=O)[nH]c1=O,5.89
7,CC(=O)Nc1ccc(NC(=O)C2CC(=O)N=C(N)S2)cc1 (stereo not shown),3.85
8,COc1ccc(C2=NS(=O)(=O)N(C)C(C(=O)N3C(C)CCCC3C)=C2)cc1 (stereo not shown),3.48
9,CCCCC(=O)NC(=S)Nc1cccc(C(=O)O)c1,8.95
10,COc1ccc(N(CC(=O)NCc2ccccc2C)S(=O)(=O)c2ccc(C)cc2)cc1OC,7.29
11,O=C(CN1NS(=O)(=O)c2ccccc2C1=O)Nc1ccccc1OC(F)F,-1.21
12,CCc1cc(C(c2cccc(OC)c2)N2CCOCC2)c(NC(=O)c2ccccc2)s1 (stereo not shown),9.83
13,N#C/C(=C/c1ccc([N+](=O)[O-])cc1)C(N)=O,10.4
14,COc1ccc(OC/C(O)=C(\C#N)c2nc3ccccc3[nH]2)cc1,-5.19
15,CCCC[N+]12C3C[C@H](C4[C@H](O)[C@]5(C[C@@H]41)c1ccccc1N(C)[C@@H]35)[C@H](CC)[C@H]2O.[I-] (stereo partly shown),-24.9
16,COc1ccc(C2C(C(C)=O)=C(O)C(=O)N2c2ccc(Br)cc2)cc1 (stereo not shown),13.5
17,CCCn1c2ccccc2c2cnn(CC(=O)N(CC)CC)c(=O)c21,8.76
18,Cc1ccc(C2(c3noc(CN(C)Cc4cnn(C)c4)n3)CCCC2)cc1,11.8
19,CCCCC(=O)Nc1nc(C)c(-c2csc(Nc3cc(OC)ccc3OC)n2)s1,0.696
20,CN(c1ccccc1C(=O)Nc1cccc([N+](=O)[O-])c1)S(=O)(=O)c1ccccc1,-13.8
21,N#Cc1c(NC(=O)c2cnn3cccnc23)sc2c1CCCC2,7.93
22,CC(C)c1cc(C(=O)N2CCCC(N3CCN(c4ccc(F)cc4)CC3)C2)no1 (stereo not shown),-36.4

row,Compound,"hERG current change (%, negative = inhibition) at 1uM [%]"
1,COCCCNC(=O)Nc1ccc(Br)cc1Cl,17.9
2,CCOCCn1c(CN2CCN(C(c3ccccc3)c3ccccc3)CC2)nc2c1c(=O)n(C)c(=O)n2C,11.3
3,Cn1nc(C(=O)OCC(=O)Nc2sccc2C(N)=O)c2ccccc2c1=O,9.92
4,COc1ccc(N2C(=NC(=O)C3CCCCC3)SC3CS(=O)(=O)CC32)cc1Cl (stereo not shown),9.12
5,O=C(NCC1CCCN(C(=O)c2cccnc2)C1)c1ccc(-c2ccccc2)cc1 (stereo not shown),-4.76
6,CCOC(=O)c1ccccc1NS(=O)(=O)c1cnn(CC)c1C,4.74
7,CC(C)N1CCC(n2nccc2NC(=O)c2ccc3c(c2)OCO3)CC1,12
8,COc1ccccc1OCCN1CSC(=S)N(C)C1,3.62
9,CCOc1ccccc1NC(=O)c1cccc(S(=O)(=O)N(Cc2ccccc2)c2ccccc2OC)c1,6.89
10,Cl.Nc1ncnc2nc[nH]c12,8.3
11,Cc1cccnc1NC(=O)c1ccc(S(=O)(=O)N2CCCCC2)cc1,13
12,COc1cc(/C=N/NC(=S)NCc2ccco2)cc(OC)c1OC,16.8
13,Cc1ccccc1NC(=O)N1CCCN(c2ccc(C#N)cn2)CC1,7.61
14,CCN(CC)S(=O)(=O)c1ccc(Oc2ccc(S(=O)(=O)N(CC)CC)cc2)cc1,3.98
15,CC(CCc1ccccc1)NC(=O)CCN1N=C(c2ccccc2)CCC1=O (stereo not shown),4.68
16,Cc1ccc(NC(=O)CCc2c(C)nn(-c3ccc(N4CCCCC4)nn3)c2C)cc1,5.83
17,COC(=O)C(=Nc1ccccc1)/C(C(=O)C(=O)N(C)c1ccccc1)=C(\O)c1ccccc1,19.5
18,COC(=O)C1=C(c2cccc(OCc3ccccc3)c2)C[C@@H]2CC[C@H]1N2C(=O)NCc1cccc(OC)c1,8.65
19,C=C(C)CNC(=S)NNC(=O)CCn1c2ccccc2c2ccccc21,-2.86
20,CC(OC(=O)c1cnc(Cl)c(Cl)c1)C(=O)NCc1ccccc1 (stereo not shown),0.333
21,COc1ccccc1N(CC1CO1)S(=O)(=O)c1ccc(C)cc1 (stereo not shown),12.3
22,COc1ccc(OC)c(NC(=O)CSc2nc3cccnc3n2C)c1,4.28

row,Compound,"hERG current change (%, negative = inhibition) at 1uM [%]"
1,CC1CCN(CC(=O)Nc2ccccc2Sc2ccccc2)CC1,0.0629
2,O=C(Nc1ccccc1N1CCCCC1)C1CC(=O)N(c2ccccc2F)C1 (stereo not shown),6.17
3,CC(C)CCn1cnc2c1c(=O)[nH]c(=O)n2Cc1ccccc1,13.7
4,C/C(=N\NC(=O)Cn1nc(C)c([N+](=O)[O-])c1C)c1ccc(Cl)s1,8.79
5,CCCCCn1c(N)c(C(=O)NCc2cccs2)c2nc3ccccc3nc21,-2.17
6,O=C(c1ccco1)N1CCN(C23CC4CC(CC(C4)C2)C3)CC1,-6.2
7,CCOc1ccccc1N1C(=O)NC(=O)/C(=C/c2ccc3c4c(cccc24)CC3)C1=O,3.58
8,O=c1[nH]c2ccc(NCc3ccccc3OCc3ccc(Cl)cc3)cc2[nH]1,9.98
9,O=C(N/N=C/c1cccs1)c1cc(-c2ccc3ccccc3c2)n[nH]1,9.9
10,O=C(NCN1C(=O)C2C3C=CC(C3)C2C1=O)OC1CCCCC1 (stereo not shown),9.06
11,N#Cc1nc(Cc2ccccc2)oc1NCc1ccccc1Cl,-2.46
12,CC1Cc2ccccc2N1S(=O)(=O)c1cccs1 (stereo not shown),6.91
13,COc1ccc(CCNC(=O)C(=O)NCC2CCCN2S(=O)(=O)c2ccccc2)cc1 (stereo not shown),-3.28
14,Fc1ccc(-n2c(-c3ccc4ccccc4n3)n[nH]c2=S)cc1Cl,6.07
15,O=C(Nc1ccccc1Cl)OCc1cncs1,10.9
16,CC(=O)Oc1ccc2oc(=O)c3c(c2c1)CCCN3C(=O)CN1CCOCC1,3.94
17,COC/C=C/C1=CC2=CC(=O)C(C)(OC(=O)c3cnc4ccccc4n3)C(=O)C2=CN1C(CO)CO (stereo not shown),9.62
18,C/C=C/CSc1nc2c(c(=O)[nH]c(=O)n2C)n1Cc1ccc(C)cc1,5.82
19,c1cc2c(cc1[C@H]1OC[C@H]3[C@@H]1CO[C@@H]3c1ccc3c(c1)OCO3)OCO2,-0.141
20,CC(=O)Oc1ccc2nc(-c3ccc(Br)o3)oc(=O)c2c1,12.8
21,CSCC[C@H](NC(=O)CC(C)(C)C)c1nc2ccccc2[nH]1,-10.2
22,CCOc1ccc(N(CC(=O)NCCSCc2ccc(C)cc2)S(C)(=O)=O)cc1,13.4

row,Compound,"hERG current change (%, negative = inhibition) at 1uM [%]"
1,Cc1sc2c(c1C)C(=O)/C(=C\Nc1ccncc1)S(=O)(=O)N2C,11.8
2,O=C(O)C/C=C(\NC(=O)OCc1ccccc1)C(=O)OCc1ccccc1,11.1
3,Cc1cccc(NC(=O)CNC(=O)COC(=O)CCS(=O)(=O)c2ccccc2)c1C,12.3
4,CCC(C)NC(=O)CSc1nc(-c2cccs2)cc(C(F)(F)F)n1 (stereo not shown),12.6
5,CCOC(=O)c1cnn(-c2ncnc3sc(C)c(C)c23)c1N,12.8
6,COc1cc(NC(=O)CN(C)S(=O)(=O)c2ccc3c(c2)CC(C)N3C(C)=O)cc(OC)c1 (stereo not shown),12.7
7,Cc1nnc(SCC(=O)N2CCN(C(=O)c3ccco3)CC2)n1-c1ccccc1,9.13
8,COc1ccc(CN(CCC#N)C(=S)NC(=O)c2ccccc2)cc1,13
9,FC(F)c1nnc2c(Cl)cc(C(F)(F)F)cn12,10.8
10,COc1ccc(-c2nnc(SC(C)C(=O)NNC(=O)c3ccc(C)cc3)o2)cc1 (stereo not shown),13.4
11,COc1cc(NS(=O)(=O)c2ccc(NC(=S)NC(=O)CC(C)C)cc2)nc(OC)n1,20.7
12,CN(Cc1ccccc1F)C(=O)COc1ccc(C(=O)c2ccccc2)cc1,12.4
13,Cc1cc(C)cc(N2C(=O)CN(Cc3sccc3C)C2=S)c1,9.99
14,O=C(Nc1ccc2oc(-c3ccncc3)nc2c1)c1ccccc1F,7.55
15,COc1ccc(-n2c(COc3ccc(C)cc3)nnc2SCc2ccc(C#N)cc2)cc1,-3.44
16,COc1ccc(C(C(=O)NC2CCCCC2)N(C(=O)c2snc(C(N)=O)c2N)c2ccc(OC)cc2OC)cc1 (stereo not shown),7.41
17,CCNC(=O)N1CCC(c2nc3ccccc3s2)CC1,12
18,Cc1nc2ccc(NC(=O)c3cc(S(=O)(=O)N(C)c4ccccc4)ccc3Cl)cc2s1,3.43
19,CCC(C)NS(=O)(=O)c1ccc(NC(=O)C2CCCO2)cc1 (stereo not shown),11
